Some of the results follow. At the low end of the ranking the order means little.

The target in the test is SIX1 homeodomain (reference allele) (UniProt Q15475). The experiment in a line: universal protein binding microarray. The following applies: Universal all-10-mer PBM (8x60K, AMADID 030236), 300 nM GST-tagged protein, Alexa Fluor 488 anti-GST; buffer, salt, pH and temperature not stated; high values mean tight binding; most listed sequences are background and not binding sites; double strand, one strand shown.
For CCACCTAA, the binding signal was -0.0563 E-score. In the case of TCTTTTCA it was -0.176 E-score; in that of TATCTAGA, 0.189 E-score. For AACCTAAA the value was -0.193 E-score; for ATTCTTAA, -0.0969 E-score; for GCCAGAAC, -0.0551 E-score. In the case of CGAAGTAA, the binding signal was -0.0763 E-score. As for GATTCTAA, the binding signal was -0.0872 E-score. In the case of CAGCTGTC it was -0.254 E-score; in that of GACCGCGC, -0.205 E-score.

With AGGTGTAA, the binding signal was 0.165 E-score. For AGTAGTCG the value was -0.094 E-score. On to AATCGACA, for which the binding signal was -0.0126 E-score. On to CCCAGGGC, for which the binding signal is -0.163 E-score. In the case of ACCTGAAT it was 0.0191 E-score; in that of TGTCACAA, 0.0301 E-score.

Regarding CACGGGTC, the binding signal is -0.0655 E-score. In the case of CTCATGCA it was 0.0525 E-score.

With CCGACGCA, the binding signal is -0.195 E-score. For GCCGTACA the value was -0.00255 E-score; for AAGCTGAC, -0.269 E-score; for CGTCCCCA, -0.134 E-score. For CCTAATCA the value was 2.5e-05 E-score; for AAACGTTA, -0.171 E-score; for CCATCACA, 0.0973 E-score.

With GACAGCCC, the binding signal is -0.171 E-score. In the case of AAGGTCTA it was -0.00129 E-score; in that of ATACATGG, 0.31 E-score. For GTGCGCAA the value was -0.185 E-score.

GCAGGTAA: the binding signal was -0.14 E-score. In the case of AATCTTGT it was 0.0243 E-score. For CCAACCTA the value was -0.157 E-score; for GGTTTAAC, -0.0475 E-score; for CAGGGACG, -0.222 E-score. For GCTCTAGA the value was -0.0141 E-score; for CAACATCA, -0.15 E-score.

For the sequence AAGAGGAT, the binding signal stood at 0.212 E-score.

With AACCGCCG, the binding signal is -0.0966 E-score. Consider CGCAGGGA, for which the binding signal was -0.0669 E-score. For ATGGCTTC the value was -0.17 E-score; for AAGAACTA, -0.08 E-score; for ATTTAATG, -0.0619 E-score. For AATTCGGC the value was -0.178 E-score; for CAGAGACA, -0.134 E-score. With AAACAACT, the binding signal was -0.0722 E-score. AAAACATC: the binding signal was -0.342 E-score. Take TCAGAGCA: the binding signal is -0.0441 E-score.

As to GATCCTGA, the binding signal is 0.301 E-score. Take GATCTAGA: the binding signal turned out to be 0.252 E-score. In the case of GCCCTCAA it was -0.141 E-score. On to ATCTTCAT, for which the binding signal came out at 0.161 E-score. In the case of CCTTATGA it was 0.0701 E-score.

As to TGCCGACA, the binding signal was -0.0342 E-score. In the case of CAGGATAG it was 0.315 E-score; in that of ATGTACCG, -0.112 E-score.

For CATGTTTA, the binding signal is -0.114 E-score. Turning to AGACGATA, the binding signal is 0.363 E-score. For CTACTCAA the value was 0.0391 E-score; for GCCTTTGA, -0.0737 E-score; for CCGTATGC, 0.0205 E-score. In the case of GAGGCCTC it was -0.131 E-score. For AGTCAAAG the value was -0.14 E-score; for CCGGAGGA, 0.121 E-score.

With ACCCTCCG, the binding signal stood at 0.13 E-score.

As to CAGTGGCA, the binding signal was -0.146 E-score. On to TCTTTAAA, for which the binding signal is -0.117 E-score. For AATGGTCG the value was -0.209 E-score; for TCACTCAA, -0.0284 E-score. For AGAGGGAC the value was -0.0489 E-score. On to CAGACGTC, for which the binding signal is -0.118 E-score. Consider CCTGCATA, for which the binding signal was -0.0304 E-score. As for ATACAACG, the binding signal is 0.152 E-score.

Turning to CAACGTAG, the binding signal was -0.161 E-score. In the case of ACGGCGAA, the binding signal came to 0.00632 E-score. As to AGAAATCA, the binding signal was -0.264 E-score. For ACGTACCA, the binding signal was -0.0673 E-score.

For ATGTCAAC, the binding signal was -0.182 E-score. As to ATATCTTG, the binding signal was 0.271 E-score. For the sequence GTCTTCAA, the binding signal was -0.303 E-score. As to AGCTACCA, the binding signal was -0.181 E-score.

Turning to GGATCACC, the binding signal was 0.438 E-score. In the case of CCTTGTGA it was 0.164 E-score; in that of CTAAACCA, -0.0463 E-score; in that of CTAACAAG, -0.294 E-score.

Turning to TCCATCGA, the binding signal worked out at 0.117 E-score.

As for CAATCAAC, the binding signal is -0.241 E-score. In the case of GACTTCAA it was -0.119 E-score. In the case of AGCCCTAG it was -0.193 E-score; in that of AGATGACT, 0.0481 E-score. For CACGGAAC the value was -0.0143 E-score. As for ATTGTGTA, the binding signal was 0.112 E-score.

Consider ATAGCTAA, for which the binding signal is -0.00798 E-score. For GAAGTTCA the value was -0.293 E-score; for GACTCGAC, -0.269 E-score; for GGCTCACA, 0.0409 E-score. In the case of CGCTTACA it was -0.104 E-score; in that of ATGTAATA, 0.208 E-score; in that of GCCATCAC, -0.273 E-score. In the case of AGCGTAAT it was -0.0605 E-score. Regarding ACGAGCGT, the binding signal was -0.0496 E-score. For CGTTCGTC the value was -0.0314 E-score. In the case of ACGTGTGG it was -0.212 E-score; in that of CCCGGTAG, 0.0265 E-score; in that of CACTTCCA, -0.0275 E-score.

Take CGCCCCCC: the binding signal was -0.175 E-score. For TCCAGACA the value was -0.0599 E-score; for GTCGGCTA, -0.0191 E-score. In the case of GGCGCCCA it was -0.282 E-score; in that of AGGAGGTG, 0.0382 E-score. For the sequence AGTACCAA, the binding signal was -0.128 E-score.

Regarding AGAGCACA, the binding signal is -0.141 E-score. In the case of GAAATATA it was 0.131 E-score; in that of CCGAGCAG, -0.14 E-score; in that of GTGATCAA, 0.236 E-score. For GAAGACCA the value was -0.172 E-score; for CGCTGAGC, -0.11 E-score; for ACACTGAC, 0.055 E-score.

With AGTCTCCA, the binding signal was -0.0883 E-score. For TAACCCAA the value was -0.0424 E-score. For AGTGCTTC the value was -0.344 E-score.

GACCAACA: the binding signal is -0.136 E-score.

On to AGCAGAGG, for which the binding signal is -0.0574 E-score.

Regarding TCCACCGA, the binding signal was -0.119 E-score.

With ACAGATGT, the binding signal was -0.103 E-score. For TACGAGGA the value was 0.0147 E-score. In the case of AAACGACA it was 0.104 E-score; in that of AGCACGCA, -0.267 E-score; in that of ACTACGAC, -0.0908 E-score. For ATCAGGTC the value was 0.0874 E-score; for GGCGGCAA, -0.106 E-score; for ATCGTGAC, 0.0541 E-score. Turning to AACTTTAC, the binding signal was -0.137 E-score. In the case of CTGTGCTA it was -0.0255 E-score; in that of CGATAGCC, 0.287 E-score. Regarding CCGACTGA, the binding signal is -0.0493 E-score. In the case of ATCCGACC it was 0.337 E-score. In the case of CAGTTCTA it was 0.0456 E-score; in that of CTTAACCA, -0.147 E-score.

GCGTGATA: the binding signal is 0.437 E-score. For ATCCAAAT the value was 0.141 E-score.

For AATTTCCG, the binding signal was -0.225 E-score. In the case of AAATAGGT it was -0.0424 E-score; in that of GCGCCTTA, -0.217 E-score. As to ATACATCG, the binding signal was found to be 0.238 E-score. In the case of AGCCCGGG it was -0.0909 E-score; in that of AGGCCCTA, -0.255 E-score.

ATGGATTG: the binding signal stood at 0.182 E-score. In the case of ACGGACTG it was -0.242 E-score; in that of TGCGTTAA, -0.074 E-score. For ATCGGTGG the value was 0.189 E-score. For TGAAGCCA the value was -0.235 E-score; for CAAAATAA, -0.0862 E-score; for ATACAGAA, 0.223 E-score. On to ATTAACAC, for which the binding signal worked out at 0.258 E-score. In the case of AGGGGTTA it was 0.136 E-score; in that of AAGGGCAC, -0.0535 E-score. For AAAGGAGC the value was -0.2 E-score; for AGAGACGC, -0.0376 E-score.

In the case of CTCTGAGA, the binding signal was found to be 0.0369 E-score. In the case of CTAAGTGA it was 0.133 E-score; in that of GGGGTACC, 0.145 E-score; in that of CGCAGTTC, -0.176 E-score. For AACCGTTA the value was -0.199 E-score. With ATGACTAG, the binding signal was -0.231 E-score. For GTGTTTTA the value was -0.162 E-score; for GGCGGCCA, -0.162 E-score. For CGGCGCAA the value was -0.114 E-score; for CACTAAGG, -0.0594 E-score; for ACGACGAT, 0.113 E-score.

With ACACAAAG, the binding signal is -0.0461 E-score. For TTTAAAAA the value was -0.0428 E-score; for ACGTTTCT, -0.302 E-score.

The values are drawn from publication PMC10668032.
